# US20260224723A1, “ANTI-B7H3 ANTIBODY-DRUG CONJUGATE AND USE THEREOF” (Duality Biologics (Suzhou) Co., Ltd., priority 2022, published 2026)
# B1: W301088-1.145.16-xIgG1KV320: chimeric anti-B7H3 human IgG1 LALA antibody, heavy chain SEQ ID NO: 14, light chain SEQ ID NO: 15 (antibody)
# heavy: DVQLQESGPGLVKPSQSLSLTCTVTDYSITGDYAWNWIRQFPGNKLEWMGYISYSGSTSYNPSLQSRISITRDTSKNQFFLQLNSVTSEDTATYFCARSLGRRWYFVVWGAGTTVTVSAASTKGPSVFPLAPSSKSTSGGTAALGCLVKDYFPEPVTVSWNSGALTSGVHTFPAVLQSSGLYSLSSVVTVPSSSLGTQTYICNVNHKPSNTKVDKRV[not shown - human IgG1 Fc with changes]
# light: DIVMTQSPSSLAMSVGQKVTMSCKSSQSLLNSSNQKNYLAWYQQKPGQSPKLLIYFASTRESGVPDRFIGSGSGTDFTLTISSVQAEDLTDYFCQQHYSAPWTFGGGTKLEIKRTVAAPSVFIFPPSDEQLKSGTASVVCLLNNFYPREAKVQWKVDNALQSGNSQESVTEQDSKDSTYSLSSTLTLSKADYEKHKVYACEVTHQGLSSPVTKSFNRGEC
# Columns and labels:
# human 2IgB7H3 = target: T1, human 2IgB7H3 (Homo sapiens, UniProt Q5ZPR3); experiment: SPR binding affinity for human 2IgB7H3 (Biacore 8K); conditions: analyte human 2IgB7H3
# T1 construct: His tag; purchased ACRO (ACROBiosystems) B73-H52E2
# T1 sequence (Q5ZPR3 29-316 isoform Q5ZPR3-2 limits assumed): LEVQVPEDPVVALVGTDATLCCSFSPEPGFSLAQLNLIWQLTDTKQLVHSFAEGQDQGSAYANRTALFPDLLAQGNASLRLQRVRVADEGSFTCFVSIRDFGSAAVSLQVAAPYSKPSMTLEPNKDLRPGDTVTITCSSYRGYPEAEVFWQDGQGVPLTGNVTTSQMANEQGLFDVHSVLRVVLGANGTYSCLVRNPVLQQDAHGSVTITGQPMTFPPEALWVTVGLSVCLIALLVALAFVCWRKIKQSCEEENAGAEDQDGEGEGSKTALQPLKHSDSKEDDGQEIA
# Experimental: (§1) The affinity of antibodies for human 2IgB7H3 was determined using surface plasmon resonance (SPR). The affinity of antibodies for human 2IgB7H3 was determined by Biacore 8K. An activator was prepared by mixing 400 mM EDC and 100 mM NHS (GE) immediately prior to injection into the channel. The CM5 sensor chip was activated for 420 seconds with the activator. Goat anti-human Fc IgG (30 μg/mL in 10 mM NaAc, pH 4.5) was then injected into the channel at a flow rate of 10 μL/min for 420 seconds. The chip was deactivated by 1 M ethanolamine hydrochloric acid. The antibodies diluted in running buffer (1×HBS-EP+) were injected into the channel at a flow rate of 10 μL/min for 30 seconds. Seven concentrations (500 nM, 250 nM, 125 nM, 62.5 nM, 31.25 nM, 15.625 nM, and 7.813 nM) of analyte human 2IgB7H3 were injected sequentially into the channel at a flow rate of 30 μL/min for an association phase of 120 seconds, followed by dissociation of 300 seconds. Glycine (10 mM, pH 1.5) was injected as regeneration buffer after the dissociation phase.
# (§2) The sensorgrams for the reference channel and the buffer channel were subtracted from the test sensorgrams. The experimental data were fitted with a 1:1 binding model. The molecular weight of the human 2IgB7H3 used in the calculation was 25.2 kDa.
# (§3) The experimental data were fitted by a 1:1 binding model bundled with the Biacore 8K evaluation software.
# human 4IgB7H3 = target: T2, human 4IgB7H3 (Homo sapiens, UniProt Q5ZPR3); experiment: SPR binding affinity for human 4IgB7H3 (Biacore 8K); conditions: analyte human 4IgB7H3
# T2 construct: Uniprot ID: Q5ZPR3, amino acids 29-461; 6xHis (C); made in house; host or cells: Expi293F
# T2 sequence (Q5ZPR3 29-461): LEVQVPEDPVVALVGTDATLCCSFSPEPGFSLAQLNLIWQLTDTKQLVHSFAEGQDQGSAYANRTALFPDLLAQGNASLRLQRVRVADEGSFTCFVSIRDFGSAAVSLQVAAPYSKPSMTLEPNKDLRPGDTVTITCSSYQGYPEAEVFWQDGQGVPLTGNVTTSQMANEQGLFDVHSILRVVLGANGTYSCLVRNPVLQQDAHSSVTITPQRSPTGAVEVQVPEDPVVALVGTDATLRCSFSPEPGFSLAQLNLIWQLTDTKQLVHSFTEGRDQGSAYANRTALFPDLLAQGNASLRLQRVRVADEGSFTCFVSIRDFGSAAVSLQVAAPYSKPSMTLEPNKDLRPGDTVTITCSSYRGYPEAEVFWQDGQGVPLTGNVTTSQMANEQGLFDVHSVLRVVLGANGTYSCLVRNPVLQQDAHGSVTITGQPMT
# Experimental: The affinity of antibodies for human 4IgB7H3 was determined using surface plasmon resonance (SPR). The affinity of antibodies for human 4IgB7H3 was determined by Biacore 8K. An activator was prepared by mixing 400 mM EDC and 100 mM NHS (GE) immediately prior to injection into the channel. The CM5 sensor chip was activated for 420 seconds with the activator. Goat anti-human Fc IgG (30 μg/mL in 10 mM NaAc, pH 4.5) was then injected into the channel at a flow rate of 10 μL/min for 420 seconds. The chip was deactivated by 1 M ethanolamine hydrochloric acid. The antibodies diluted in running buffer (1×HBS-EP+) were injected into the channel at a flow rate of 10 μL/min for 30 seconds. Seven concentrations (100 nM, 50 nM, 25 nM, 12.5 nM, 6.25 nM, […], and 1.563 nM) of analyte human 4IgB7H3 were injected sequentially into the channel at a flow rate of 30 μL/min for an association phase of 180 seconds, followed by dissociation of 3600 seconds. Glycine (10 mM, pH 1.5) was injected as regeneration buffer after the dissociation phase.
# The sensorgrams for the reference channel and the buffer channel were subtracted from the test sensorgrams. The experimental data were fitted with a 1:1 binding model. The molecular weight of the human 4IgB7H3 used in the calculation was 47.8 kDa.
# as §3
# cynomolgus monkey B7H3 = experiment: SPR binding affinity for cynomolgus monkey B7H3 (Biacore 8K); conditions: analyte cynomolgus monkey B7H3
# Experimental: as §1, with “cynomolgus monkey B7H3” for “human 2IgB7H3”, “Fe” for “Fc”, “Seven concentrations (500 nM, 250 nM, 125 nM, 62.5 nM, 31.25 nM, 15.625 nM, and 7.813 nM) of analyte human 2IgB7H3 were injected sequentially into the channel at a flow rate of 30 μL/min for an association phase of 120 seconds, followed by dissociation of 300 seconds.” left out
# as §2, with “data for 6 analyte concentrations (50 nM, 25 nM, 12.5 nM, 6.25 nM, 3.125 nM, and 1.563 nM)” for “data”, “cynomolgus monkey B7H3” for “human 2IgB7H3”, “49” for “25.2”
# as §3
molecule,measurement,setting,value
B1,ka,human 2IgB7H3,235000 M⁻¹ s⁻¹
same,kd,human 2IgB7H3,0.0136 s⁻¹
same,ka,human 4IgB7H3,657000 M⁻¹ s⁻¹
same,kd,human 4IgB7H3,3.39e-05 s⁻¹
same,ka,cynomolgus monkey B7H3,521000 M⁻¹ s⁻¹
same,kd,cynomolgus monkey B7H3,2.94e-05 s⁻¹
